According to paper PMC4336329 (PLoS ONE, 2015):
The campaign covered roughly 310,000 compounds. About 2,200 (0.71%) showed an effect of 50% or more. The effect is printed as a negative number. The list shows a part of the results.

Molecular target: human ether-à-go-go-related gene (hERG) potassium channel (human, UniProt Q12809)
Assay: primary screen, population patch clamp on CHO cells stably expressing hERG

Sequence of human ether-à-go-go-related gene (hERG) potassium channel (Q12809 whole entry, looked up): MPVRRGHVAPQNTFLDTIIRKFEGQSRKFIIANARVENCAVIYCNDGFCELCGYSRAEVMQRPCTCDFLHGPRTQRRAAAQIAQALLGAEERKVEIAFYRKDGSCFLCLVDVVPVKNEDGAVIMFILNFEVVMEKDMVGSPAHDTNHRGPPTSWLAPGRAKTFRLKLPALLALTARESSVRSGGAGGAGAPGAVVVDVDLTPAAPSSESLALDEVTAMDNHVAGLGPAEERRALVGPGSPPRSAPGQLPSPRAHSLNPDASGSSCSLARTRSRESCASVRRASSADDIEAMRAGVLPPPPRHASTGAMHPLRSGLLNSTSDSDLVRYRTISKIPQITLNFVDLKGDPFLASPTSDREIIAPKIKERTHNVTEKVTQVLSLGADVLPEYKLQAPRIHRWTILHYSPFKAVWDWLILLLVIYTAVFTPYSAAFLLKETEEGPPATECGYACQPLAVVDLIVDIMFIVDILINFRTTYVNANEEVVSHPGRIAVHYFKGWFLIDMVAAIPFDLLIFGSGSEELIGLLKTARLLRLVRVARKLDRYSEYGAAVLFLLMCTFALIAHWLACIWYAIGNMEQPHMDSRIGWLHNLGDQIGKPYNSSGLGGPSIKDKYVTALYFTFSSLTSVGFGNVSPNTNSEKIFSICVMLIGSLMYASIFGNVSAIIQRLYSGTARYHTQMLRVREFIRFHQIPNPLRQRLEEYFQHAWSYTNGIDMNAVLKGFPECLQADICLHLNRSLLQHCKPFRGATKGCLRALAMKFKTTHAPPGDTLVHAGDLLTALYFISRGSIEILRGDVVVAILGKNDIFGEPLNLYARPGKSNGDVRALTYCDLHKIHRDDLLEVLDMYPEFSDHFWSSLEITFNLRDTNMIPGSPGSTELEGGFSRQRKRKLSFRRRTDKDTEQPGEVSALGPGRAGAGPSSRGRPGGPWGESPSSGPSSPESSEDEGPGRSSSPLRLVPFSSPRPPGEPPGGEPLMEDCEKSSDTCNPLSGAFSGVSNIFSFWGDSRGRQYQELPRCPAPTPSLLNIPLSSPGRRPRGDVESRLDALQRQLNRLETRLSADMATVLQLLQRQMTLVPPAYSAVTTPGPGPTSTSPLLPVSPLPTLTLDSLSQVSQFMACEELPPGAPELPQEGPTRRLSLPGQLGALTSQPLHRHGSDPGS

Row | Compound | hERG current change (%, negative = inhibition) at 1uM
1 | OCC1(CCc2ccccc2)CCCN(CCCC(F)(F)F)C1 (stereo not drawn) | -13.2%
2 | CC1CC(C(F)(F)C(F)(F)F)n2nc(C(=O)O)cc2N1 (stereo not drawn) | 4.91%
3 | CCN(CC)S(=O)(=O)c1ccc2c(c1)N(CC(=O)N(CCc1ccncc1)C(C)C)C(=O)CO2 | -13.5%
4 | C=CCc1cccc2cc(C(=O)N3CCOCC3)c(=O)oc12 | 9.2%
5 | OCC[C@@H]1C[C@H](O)[C@@H](O)[C@@]2(CCCCO2)O1 | 8%
6 | O=C(Nc1cccc(Cl)c1N1CCCC1)c1cc2ccccc2o1 | 7.01%
7 | CN1CCN(C2=NC(=O)/C(=C/c3cn[nH]c3-c3ccccc3)S2)CC1 | 13.9%
8 | CCOc1ccccc1NC(=O)NNS(=O)(=O)c1ccc([N+](=O)[O-])cc1 | 1.81%
9 | CCOC(=O)N1CCN(CC(O)COc2c(C)cccc2C)CC1.Cl (stereo not drawn) | 5.97%
10 | Brc1ccc2c(c1)C(c1cccnc1)=NNC(c1cccs1)=N2 | -4.52%
11 | O=C(/C=C/c1ccc(O)c(O)c1)c1ccccc1O | 6.73%
12 | O=C(Cn1cnc2scc(-c3ccc(Cl)cc3)c2c1=O)N1CCOCC1 | 0.744%
13 | COc1ccc(Cn2c(SCc3ccc(C)cc3)nc3cc(OC)c(OC)cc3c2=N)cc1Cl | 17.2%
14 | COc1cccc(-n2nc(C(=O)N3CCC4(CC3)OCCO4)c3ccccc3c2=O)c1 | 4.52%
15 | COc1ccc(/C(C)=N/NC(=O)CNC(=O)c2ccco2)cc1 | 8.89%
16 | CN1/C(=C\C=C2/SC(=S)N(CC(=O)O)C2=O)C(C)(C)c2ccccc21 | 15.9%
17 | NS(=O)(=O)c1ccc(CNC(=O)C(c2ccccc2)c2ccccc2)cc1 | 12.6%
18 | COc1ccc(C2NC(=S)NC3=C2CCc2cc(OC)ccc23)cc1 (stereo not drawn) | 22.2%
19 | Cc1cc2occ(CC(=O)N(C)CC(=O)Nc3ccccc3Cl)c2cc1C | -0.789%
20 | CN1CCN(C(=O)c2ccccc2NC(=O)c2ccccc2Br)CC1 | -7.65%
21 | CCOc1ccc(N(C)S(=O)(=O)c2cc(-c3cc(C)no3)ccc2C)cc1 | 12.4%
22 | Cc1ccnc(SCc2cc(=O)c(OC(=O)c3cccs3)co2)n1 | 5.72%
23 | CC1CCN(S(=O)(=O)c2cccc(C(=O)NNC(=O)c3ccco3)c2)CC1 | 15.1%
24 | C=C1CCN(C(C(=O)OC)C(C)C)S(=O)(=O)c2ccc(F)cc21 (stereo not drawn) | 8.28%
